In the supplement of paper PMC8728848:
Some of the results follow.

How the values were obtained:
Experiment in all cases: glycan array binding signal (z-score within array); higher = stronger binding
Settings in all cases: glycan notation: IUPAC condensed, linker removed
[1] = molecular target: Fuc(a1-2)Gal
How it was run: (§1)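 Glycan array data came from 3228 arrays in the Consortium for Functional Glycomics database, and only arrays with an available protein sequence were kept. Glycan names were put into IUPAC-condensed notation, and columns mapping to the same glycan were averaged. The binding signal is a within-array Z-score, averaged across arrays of one protein sequence run at different concentrations or buffers and across linkers. A negative Z-score can be read as non-binding.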

[2] = molecular target: Fuc(a1-2)Gal(b1-3)GalNAc
How it was run: as §1

[3] = molecular target: Fuc(a1-2)Gal(b1-3)GalNAc(a1-3)[Fuc(a1-2)]Gal(b1-4)Glc
How it was run: as §1

[4] = molecular target: Fuc(a1-2)Gal(b1-3)GalNAc(a1-3)[Fuc(a1-2)]Gal(b1-4)GlcNAc
How it was run: as §1

[5] = molecular target: Fuc(a1-2)Gal(b1-3)GalNAc(b1-3)Gal
How it was run: as §1

[6] = molecular target: Fuc(a1-2)Gal(b1-3)GalNAc(b1-3)Gal(a1-4)Gal(b1-4)Glc
How it was run: as §1

[7] = molecular target: Fuc(a1-2)Gal(b1-3)GalNAc(b1-4)[Neu5Ac(a2-3)]Gal(b1-4)Glc
How it was run: as §1

[8] = molecular target: Fuc(a1-2)Gal(b1-3)GlcNAc
How it was run: as §1

[9] = molecular target: Fuc(a1-2)Gal(b1-3)GlcNAc(b1-2)Man(a1-3)[Fuc(a1-2)Gal(b1-3)GlcNAc(b1-2)Man(a1-6)]Man(b1-4)GlcNAc(b1-4)GlcNAc
How it was run: as §1

[10] = molecular target: Fuc(a1-2)Gal(b1-3)GlcNAc(b1-2)Man(a1-3)[Fuc(a1-2)Gal(b1-3)GlcNAc(b1-2)Man(a1-6)]Man(b1-4)GlcNAc(b1-4)[Fuc(a1-6)]GlcNAc
How it was run: as §1

[11] = molecular target: Fuc(a1-2)Gal(b1-3)GlcNAc(b1-3)Gal(b1-4)Glc
How it was run: as §1

[12] = molecular target: Fuc(a1-2)Gal(b1-3)GlcNAc(b1-3)GalNAc
How it was run: as §1

[13] = molecular target: Fuc(a1-2)Gal(b1-3)GlcNAc(b1-3)[Fuc(a1-2)Gal(b1-3)GlcNAc(b1-6)]GalNAc
How it was run: as §1

[14] = molecular target: Fuc(a1-2)Gal(b1-3)GlcNAc(b1-3)[Fuc(a1-3)[Gal(b1-4)]GlcNAc(b1-6)]Gal(b1-4)Glc
How it was run: as §1

[15] = molecular target: Fuc(a1-2)Gal(b1-3)GlcNAc(b1-3)[Gal(b1-4)GlcNAc(b1-6)]Gal(b1-4)Glc
How it was run: as §1

[16] = molecular target: Fuc(a1-2)Gal(b1-3)GlcNAc(b1-3)[Neu5Ac(a2-6)Gal(b1-4)GlcNAc(b1-6)]Gal(b1-4)Glc
How it was run: as §1

[17] = molecular target: Fuc(a1-2)Gal(b1-3)GlcNAc6S
How it was run: as §1

[18] = molecular target: Fuc(a1-2)Gal(b1-3)[Fuc(a1-4)]GlcNAc
How it was run: as §1

[19] = molecular target: Fuc(a1-2)Gal(b1-3)[Fuc(a1-4)]GlcNAc(b1-2)Man(a1-3)[Fuc(a1-2)Gal(b1-3)[Fuc(a1-4)]GlcNAc(b1-2)Man(a1-3)]Man(b1-4)GlcNAc(b1-4)GlcNAc
How it was run: as §1

[20] = molecular target: Fuc(a1-2)Gal(b1-3)[Fuc(a1-4)]GlcNAc(b1-2)Man(a1-3)[Fuc(a1-2)Gal(b1-3)[Fuc(a1-4)]GlcNAc(b1-2)Man(a1-6)]Man(b1-4)GlcNAc(b1-4)GlcNAc
How it was run: as §1

[21] = molecular target: Fuc(a1-2)Gal(b1-3)[Fuc(a1-4)]GlcNAc(b1-2)Man(a1-3)[Fuc(a1-2)Gal(b1-3)[Fuc(a1-4)]GlcNAc(b1-2)Man(a1-6)]Man(b1-4)GlcNAc(b1-4)[Fuc(a1-6)]GlcNAc(b1-4)[Fuc(a1-6)]GlcNAc
How it was run: as §1

[22] = molecular target: Fuc(a1-2)Gal(b1-3)[Fuc(a1-4)]GlcNAc(b1-3)[Fuc(a1-3)[Gal(b1-4)]GlcNAc(b1-6)]Gal(b1-4)Glc
How it was run: as §1

[23] = molecular target: Fuc(a1-2)Gal(b1-3)[Fuc(a1-4)]GlcNAc(b1-3)[Gal(b1-4)GlcNAc(b1-6)]Gal(b1-4)Glc
How it was run: as §1

[24] = molecular target: Fuc(a1-2)Gal(b1-4)Fuc(a1-3)]GlcNAc(b1-2)Man(a1-3)[Fuc(a1-2)Gal(b1-4)[Fuc(a1-3)]GlcNAc(b1-2)Man(a1-6)]Man(b1-4)GlcNAc(b1-4)GlcNAc
How it was run: as §1

[25] = molecular target: Fuc(a1-2)Gal(b1-4)Glc
How it was run: as §1

[26] = molecular target: Fuc(a1-2)Gal(b1-4)Glc6S
How it was run: as §1

[27] = molecular target: Fuc(a1-2)Gal(b1-4)GlcNAc
How it was run: as §1

[28] = molecular target: Fuc(a1-2)Gal(b1-4)GlcNAc(b1-2)Man
How it was run: as §1

[29] = molecular target: Fuc(a1-2)Gal(b1-4)GlcNAc(b1-2)Man(a1-3)[Fuc(a1-2)Gal(b1-4)GlcNAc(b1-2)Man(a1-6)]Man(b1-4)GlcNAc(b1-4)GlcNAc
How it was run: as §1

[30] = molecular target: Fuc(a1-2)Gal(b1-4)GlcNAc(b1-2)Man(a1-3)[Fuc(a1-2)Gal(b1-4)GlcNAc(b1-2)Man(a1-6)]Man(b1-4)GlcNAc(b1-4)[Fuc(a1-6)]GlcNAc
How it was run: as §1

[31] = molecular target: Fuc(a1-2)Gal(b1-4)GlcNAc(b1-2)[Fuc(a1-2)Gal(b1-4)GlcNAc(b1-4)]Man(a1-3)[Fuc(a1-2)Gal(b1-4)GlcNAc(b1-2)Man(a1-6)]Man(b1-4)GlcNAc(b1-4)GlcNAc
How it was run: as §1

[32] = molecular target: Fuc(a1-2)Gal(b1-4)GlcNAc(b1-3)Gal(b1-4)GlcNAc
How it was run: as §1

[33] = molecular target: Fuc(a1-2)Gal(b1-4)GlcNAc(b1-3)Gal(b1-4)GlcNAc(b1-2)Man(a1-3)[Fuc(a1-2)Gal(b1-4)GlcNAc(b1-3)Gal(b1-4)GlcNAc(b1-2)Man(a1-6)]Man(b1-4)GlcNAc(b1-4)GlcNAc
How it was run: as §1

[34] = molecular target: Fuc(a1-2)Gal(b1-4)GlcNAc(b1-3)Gal(b1-4)GlcNAc(b1-3)Gal(b1-4)GlcNAc
How it was run: as §1

[35] = molecular target: Fuc(a1-2)Gal(b1-4)GlcNAc(b1-3)GalNAc
How it was run: as §1

[36] = molecular target: Fuc(a1-2)Gal(b1-4)GlcNAc(b1-3)[Fuc(a1-2)Gal(b1-4)GlcNAc(b1-6)]GalNAc
How it was run: as §1

[37] = molecular target: Fuc(a1-2)Gal(b1-4)GlcNAc(b1-3)[Fuc(a1-3)[Gal(b1-4)]GlcNAc(b1-6)]Gal(b1-4)Glc
How it was run: as §1

B1: Gal 9 (Homo sapiens), O00182 (protein)
chain: MAFSGSQAPYLSPAVPFSGTIQGGLQDGLQITVNGTVLSSSGTRFAVNFQTGFSGNDIAFHFNPRFEDGGYVVCNTRQNGSWGPEERKTHMPFQKGMPFDLCFLVQSSDFKVMVNGILFVQYFHRVPFHRVDTISVNGSVQLSYISFQNPRTVPVQPAFSTVPFSQPVCFPPRPRGRRQKPPGVWPANPAPITQTVIHTVQSAPGQMFSTPAIPPMMYPHPAYPMPFITTILGGLYPSKSILLSGTVLPSAQRFHINLCSGNHIAFHLNPRFDENAVVRNTQIDNSWGSEERSLPRKMPFVRGQSFSVWILCEAHCLKVAVDGQHLFEYYHRLRNLPTINRLEVGGDIQLTHVQT
glycan array binding signal (z-score) [1]: -0.307
glycan array binding signal (z-score) [2]: -0.313
glycan array binding signal (z-score) [3]: -0.317
glycan array binding signal (z-score) [4]: -0.285
glycan array binding signal (z-score) [5]: -0.31
glycan array binding signal (z-score) [6]: -0.306
glycan array binding signal (z-score) [7]: -0.311
glycan array binding signal (z-score) [8]: -0.265
glycan array binding signal (z-score) [9]: 0.332
glycan array binding signal (z-score) [10]: -0.234
glycan array binding signal (z-score) [11]: 0.837
glycan array binding signal (z-score) [12]: -0.3
glycan array binding signal (z-score) [13]: -0.196
glycan array binding signal (z-score) [14]: 0.106
glycan array binding signal (z-score) [15]: 2.32
glycan array binding signal (z-score) [16]: -0.211
glycan array binding signal (z-score) [17]: -0.282
glycan array binding signal (z-score) [18]: -0.292
glycan array binding signal (z-score) [19]: -0.283
glycan array binding signal (z-score) [20]: -0.328
glycan array binding signal (z-score) [21]: -0.257
glycan array binding signal (z-score) [22]: -0.301
glycan array binding signal (z-score) [23]: 0.018
glycan array binding signal (z-score) [24]: -0.266
glycan array binding signal (z-score) [25]: -0.304
glycan array binding signal (z-score) [26]: -0.295
glycan array binding signal (z-score) [27]: -0.293
glycan array binding signal (z-score) [28]: -0.312
glycan array binding signal (z-score) [29]: 1.95
glycan array binding signal (z-score) [30]: -0.322
glycan array binding signal (z-score) [31]: 0.133
glycan array binding signal (z-score) [32]: 0.762
glycan array binding signal (z-score) [33]: -0.291
glycan array binding signal (z-score) [34]: 0.746
glycan array binding signal (z-score) [35]: -0.277
glycan array binding signal (z-score) [36]: -0.3
glycan array binding signal (z-score) [37]: -0.3
